Screen size: about 310,000 compounds; about 14,000 (4.5%) showed an effect of 50% or more. Effects have a minus sign here. This is one part of the list.
target: human ether-à-go-go-related gene (hERG) potassium channel (human, UniProt Q12809); test: primary screen, population patch clamp on CHO cells stably expressing hERG
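Further: peak tail current of the secondary pulse compared with the same well before compound.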

Chain of human ether-à-go-go-related gene (hERG) potassium channel (Q12809 whole entry, looked up): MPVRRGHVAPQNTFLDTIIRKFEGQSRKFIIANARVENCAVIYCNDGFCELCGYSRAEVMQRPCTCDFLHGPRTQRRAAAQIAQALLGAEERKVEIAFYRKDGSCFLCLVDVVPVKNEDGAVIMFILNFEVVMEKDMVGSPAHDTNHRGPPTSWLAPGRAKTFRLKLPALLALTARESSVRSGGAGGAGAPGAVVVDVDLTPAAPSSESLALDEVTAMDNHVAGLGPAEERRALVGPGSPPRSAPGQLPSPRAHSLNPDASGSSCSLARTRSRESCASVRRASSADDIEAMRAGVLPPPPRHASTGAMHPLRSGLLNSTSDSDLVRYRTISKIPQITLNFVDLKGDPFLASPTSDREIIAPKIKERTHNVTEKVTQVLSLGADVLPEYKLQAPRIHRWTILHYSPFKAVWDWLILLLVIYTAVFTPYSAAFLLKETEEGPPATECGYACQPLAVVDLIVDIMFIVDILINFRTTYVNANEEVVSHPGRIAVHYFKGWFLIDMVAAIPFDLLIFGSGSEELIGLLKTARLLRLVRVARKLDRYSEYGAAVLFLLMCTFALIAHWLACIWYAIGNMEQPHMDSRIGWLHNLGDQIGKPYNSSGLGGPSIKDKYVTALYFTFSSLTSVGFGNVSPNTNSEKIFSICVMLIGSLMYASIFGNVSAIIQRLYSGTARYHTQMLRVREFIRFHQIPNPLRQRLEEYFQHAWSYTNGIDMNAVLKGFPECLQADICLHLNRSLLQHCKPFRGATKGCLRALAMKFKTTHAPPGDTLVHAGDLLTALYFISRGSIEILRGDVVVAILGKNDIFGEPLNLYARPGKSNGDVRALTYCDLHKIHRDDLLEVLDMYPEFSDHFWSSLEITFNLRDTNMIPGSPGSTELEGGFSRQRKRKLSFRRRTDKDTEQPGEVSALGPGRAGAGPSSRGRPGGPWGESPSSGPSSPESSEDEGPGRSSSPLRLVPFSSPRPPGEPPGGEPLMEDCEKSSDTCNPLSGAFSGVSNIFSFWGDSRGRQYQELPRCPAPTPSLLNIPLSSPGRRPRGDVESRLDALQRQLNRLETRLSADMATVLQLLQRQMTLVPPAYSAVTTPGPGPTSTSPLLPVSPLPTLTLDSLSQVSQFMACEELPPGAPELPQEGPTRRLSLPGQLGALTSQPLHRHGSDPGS

| SMILES | hERG current change (%, negative = inhibition) at 10uM [%] |
| --- | --- |
| Cc1nc2cc(CO)ccc2s1 | 9.23 |
| CCc1ccc(C)c(OC(=O)c2cncc(Br)c2)c1 | 14.9 |
| Cn1c(=S)n(CCC(=O)O)c2ccccc21 | 20.2 |
| Cc1cccc(C(=O)NNC(=O)CCC(=O)Nc2cccc(Cl)c2C)c1 | 9.03 |
| COCCNC(=O)C(c1ccc(O)cc1)N(Cc1cccs1)C(=O)CCC(=O)Nc1ccccn1 (centres unmarked) | 19.9 |
| CCCC(=O)Nc1ccc2c(c1)C(=O)NC2=O | 6.93 |
| O=C(COC(=O)c1ccc[nH]c1=O)NCCc1ccc(Cl)cc1Cl | 6.66 |
| COC(=O)C1(S(=O)(=O)c2cc(Br)cc3c2N(C(C)=O)CC3)CC1 | 1.59 |
| COC(=O)C1CC(=O)N(c2ccc(OCc3ccccc3Cl)cc2)C1 (centres unmarked) | -19.2 |
| Fc1ccc(OCCOCCOc2cccc3[nH]ccc23)cc1 | -25.4 |
| Cc1ccc(S(=O)(=O)N2CCOCC2)cc1NC(=O)CSc1nnnn1C | 15.9 |
| Cc1cc(/C=C2/NC(=O)NC2=O)c(C)n1-c1ccncc1 | -3.2 |
| CCCCOc1ccc(-c2nnn(CC(=O)Nc3ncc(CC(=O)OCC)s3)n2)cc1 | 12.4 |
| O=C(O)c1ccc(-n2cccn2)c([N+](=O)[O-])c1 | 16.2 |
| O=C(O)c1cccc(S(=O)(=O)N2Cc3ccccc3C2)c1 | -0.612 |
| COC(=O)C1=C(c2cc3ccccc3s2)C[C@@H]2CC[C@H]1N2C(=O)NCCO | 2.66 |
| CCOC(=O)CNC(=O)Nc1ccccc1C(=O)OC | 15.1 |
| C[C@H](NC(=O)c1ccco1)C(=O)Nc1ccc2c(c1)OCO2 | 30.7 |
| O=C(c1ccc(F)cc1)N1CCCN(c2nc(-c3ccccc3)ns2)CC1 | -46.1 |
| Cc1cccn2c(=O)c3cc(C(=O)NCCN4CCOCC4)c(=N)n(Cc4cccnc4)c3nc12 | -18.4 |
| CCc1ccc(NC(=O)c2ccc(NC3=NC4CS(=O)(=O)CC4S3)cc2)cc1 (centres unmarked) | 5.74 |
| CCOC(=O)Nc1ccc2c(COC(=O)c3ccccc3O)cc(=O)oc2c1 | -11.6 |

| SMILES | hERG current change (%, negative = inhibition) at 10uM [%] |
| --- | --- |
| Cc1ccccc1/C=C/C(=O)NCC(=O)N1CCC(N(C)C2CCCCC2C)CC1 (centres unmarked) | -72.1 |
| COc1ccc(CCNC(=O)CCCCCNC(=O)N2CCn3c2nc2ccccc23)cc1OC | -13.8 |
| CN1CCCC(OC(=O)CCCC(=O)OC2CCCN(C)C2)C1.Cl (centres unmarked) | 2.1 |
| CS(=O)(=O)Nc1ccc(S(=O)(=O)NCCc2ccccc2)cc1 | -39 |
| CCOC(=O)C1=C(C)NC(=O)NC1c1c(O)ccc2ccccc12 (centres unmarked) | -3.79 |
| Cc1ccc(NC(=O)c2cccs2)cc1NC(=O)c1cccc(F)c1 | 5.36 |
| CCCn1ncc(CN2CCC(Oc3ccc(C(=O)N4CCCC4)cc3)CC2)c1C | -29.2 |
| CCOC(=O)c1c(C)oc2c1c(C(c1cccnc1)N1CCCCC1)c(O)c1ccccc12 (centres unmarked) | 0.873 |
| Nc1nc(SCC(=O)C23CC4CC(CC(C4)C2)C3)n[nH]1 | 3.17 |
| Cc1nn(C)c(C)c1S(=O)(=O)N1CCCC(C(=O)NCCc2ccc(Cl)cc2)C1 (centres unmarked) | -0.523 |
| COCCN(C(=O)CCN1C(=O)C2CC=CCC2C1=O)c1c(N)n(CC(C)C)c(=O)[nH]c1=O (centres unmarked) | 6.32 |
| CCCCCC(=O)N1CCCC1 | 16 |
| CCO[C@H]1OC(C(=O)N2CCCCCCC2)=C[C@@H](c2ccc(C(F)(F)F)cc2)[C@@H]1CCCO | -50.5 |
| NC1(C#Cc2ccc3oc(=O)c(-n4cc(-c5ccsc5)nn4)cc3c2)CCCCC1 | -2.85 |
| Cc1ccc(C(=O)NC(NC(=S)Nc2ccc(S(N)(=O)=O)cc2)C(Cl)(Cl)Cl)cc1 (centres unmarked) | -2.26 |
| N=c1c(S(=O)(=O)c2ccc(F)cc2)cc2c(=O)n3ccccc3nc2n1CC1CCCO1 (centres unmarked) | -40.8 |
| O=C(COC(=O)c1ccco1)NCc1ccc(Cl)cc1 | 4.21 |
| Nc1ccc(-c2nc3ccc(-c4nc5ccccc5o4)cc3[nH]2)cc1 | 11.7 |
| COc1cc(-c2nc(-c3ccccc3)c(-c3ccc(F)cc3)[nH]2)cc2c1OCO2 | 13.8 |
| O=S1(=O)CCC(NC(=S)N2CCCCC2)C1 (centres unmarked) | -16.4 |
| O=C(COC(=O)C1C2CC3OC(=O)C1C3C2)Nc1cccc(C(F)(F)F)c1 (centres unmarked) | -17.6 |
| O=C(Cn1nc(-c2ccc(N3CCOCC3)c([N+](=O)[O-])c2)c2ccccc2c1=O)N1CCCCC1 | -68.2 |

Source: article PMC4336329 (PLoS ONE, 2015)
